Experimental data as given in publication PMC8399847, “Hybrid Quinolinyl Phosphonates as Heterocyclic Carboxylate Isosteres: Synthesis and Biological Evaluation against Topoisomerase 1B (TOP1B)” (Pharmaceuticals, 2021).
Read-outs that look alike come from different tables or passages of the source.

How the values were obtained:
human TOP1B (hTOP1B) [1] = molecular target: T1, human TOP1B (hTOP1B) (Homo sapiens, UniProt P11387); details: for % Inhibition hTOP1B 15 seconds (semiquantitative, Table S1): reaction time 15 seconds; for % Inhibition hTOP1B 1 minute (semiquantitative, Table S1): reaction time 1 minute; for % Inhibition hTOP1B 3 minutes (semiquantitative, Table S1): reaction time 3 minutes
T1 sequence (P11387 1-765): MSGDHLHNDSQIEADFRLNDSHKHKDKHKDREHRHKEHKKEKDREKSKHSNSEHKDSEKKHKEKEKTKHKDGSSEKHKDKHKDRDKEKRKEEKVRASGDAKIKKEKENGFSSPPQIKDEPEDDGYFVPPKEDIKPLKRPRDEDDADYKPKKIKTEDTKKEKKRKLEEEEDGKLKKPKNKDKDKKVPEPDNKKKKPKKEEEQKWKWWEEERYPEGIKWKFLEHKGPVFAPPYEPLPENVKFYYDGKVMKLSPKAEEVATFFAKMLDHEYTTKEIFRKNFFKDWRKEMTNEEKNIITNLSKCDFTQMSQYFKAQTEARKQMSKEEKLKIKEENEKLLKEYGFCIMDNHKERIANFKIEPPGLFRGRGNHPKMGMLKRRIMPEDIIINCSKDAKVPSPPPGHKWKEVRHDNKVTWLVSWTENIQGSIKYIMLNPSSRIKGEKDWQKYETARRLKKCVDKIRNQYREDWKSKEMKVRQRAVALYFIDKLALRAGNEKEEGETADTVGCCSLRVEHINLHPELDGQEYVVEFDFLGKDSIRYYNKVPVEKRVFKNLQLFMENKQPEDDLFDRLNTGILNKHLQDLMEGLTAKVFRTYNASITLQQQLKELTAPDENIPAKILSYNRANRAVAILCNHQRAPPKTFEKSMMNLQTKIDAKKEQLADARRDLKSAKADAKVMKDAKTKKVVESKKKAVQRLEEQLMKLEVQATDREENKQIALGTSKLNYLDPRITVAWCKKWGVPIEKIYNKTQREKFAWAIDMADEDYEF

human TOP1B (hTOP1B) [2] = molecular target: T1, human TOP1B (hTOP1B); assay: biochemical
[3] = read-out: % Inhibition hTOP1B 15 s
[4] = read-out: % Inhibition hTOP1B 1 min
[5] = read-out: % Inhibition hTOP1B 3 min

SMILES	% Inhibition hTOP1B 15 seconds (semiquantitative, Table S1) (human TOP1B (hTOP1B) [1])	% Inhibition hTOP1B 1 minute (semiquantitative, Table S1) (human TOP1B (hTOP1B) [1])	% Inhibition hTOP1B 3 minutes (semiquantitative, Table S1) (human TOP1B (hTOP1B) [1])	inhibition of hTOP1B activity (in words) (human TOP1B (hTOP1B) [1]; relaxation gel, 15 s, 1 min, 3 min)	inhibition at 100 µM (human TOP1B (hTOP1B) [2]; [3]) [%]	inhibition at 100 µM (human TOP1B (hTOP1B) [2]; [4]) [%]	inhibition at 100 µM (human TOP1B (hTOP1B) [2]; [5]) [%]
CCOP(=O)(OCC)c1cccc2c(-c3ccccc3)cc(-c3ccccc3)nc12 [7a, Diethyl (2,4-diphenylquinolin-8-yl)phosphonate]	+	+	+	slight inhibition	20	28	1
CCOP(=O)(OCC)c1cccc2c(-c3ccccc3)cc(-c3ccc(F)cc3)nc12 [7b, Diethyl (4-Phenyl-2-(fluorophenyl)quinolin-8-il) phosphonate]	–	–	+	–	54	61	21
CCOP(=O)(OCC)c1cccc2c(-c3ccccc3)cc(-c3ccc(OC)cc3)nc12 [7c, Diethyl (2-(4-methoxyphenyl)-4-phenylquinolin-8-yl)phosphonate]	–	–	–	–	11	9	4
CCOP(=O)(OCC)c1cccc2c(-c3ccccc3)cc(-c3ccccc3OC)nc12 [7d, Diethyl (2-(2-methoxyphenyl)-4-phenylquinolin-8-yl)phosphonate]	+	+	–	–	22	16	3
CCOP(=O)(OCC)c1cccc2c(-c3ccccc3)cc(-c3ccc4ccccc4c3)nc12 [7e, Diethyl (2-(naphthalen-2-yl)-4-phenylquinolin-8-yl)phosphonate]	–	–	–	–	17	36	4
CCOP(=O)(OCC)c1cccc2c(-c3ccccc3)cc(-c3cccc4ccccc34)nc12 [7f, Diethyl (2-(naphthalen-1-yl)-4-phenylquinolin-8-yl)phosphonate]	+	+	–	–	27	28	8
CCOP(=O)(OCC)c1cccc2c(-c3ccc(F)cc3)cc(-c3ccccc3)nc12 [7g]	+	+	–	–	28	36	3
CCOP(=O)(OCC)c1cccc2c(-c3ccc(F)cc3)cc(-c3ccc(F)cc3)nc12 [7h, Diethyl (2,4-bis(4-fluorophenyl)quinolin-8-yl)phosphonate]	+	+	–	–	27	19	4
CCOP(=O)(OCC)c1cccc2c(-c3ccc(F)cc3)cc(-c3ccc(F)c(F)c3)nc12 [7i, Diethyl (2-(3,4-difluorophenyl)-4-(4-fluorophenyl)quinolin-8-yl)phosphonate]	+	+	+	–	47	37	2
CCOP(=O)(OCC)c1cccc2c(-c3ccc(C)cc3)cc(-c3ccc(F)cc3)nc12 [7j, Diethyl (2-(4-fluorophenyl)-4-(p-tolyl)quinolin-8-yl)phosphonate]	–	–	–	–	65	67	3
CCOP(=O)(OCC)c1cccc2c(-c3ccc(C)cc3)cc(-c3ccc(F)c(F)c3)nc12 [7k, Diethyl (2-(3,4-difluorophenyl)-4-(p-tolyl)quinolin-8-yl)phosphonate]	–	–	+	–	63	95	5
CC(C)OP(=O)(OC(C)C)c1cccc2c(-c3ccccc3)cc(-c3ccc(F)cc3)nc12 [7l, Diisopropyl (2-(4-fluorophenyl)-4-phenylquinolin-8-yl)phosphonate]	+	–	–	–	18	13	2
CC(C)OP(=O)(OC(C)C)c1cccc2c(-c3ccccc3)cc(-c3ccc(F)c(F)c3)nc12 [7m, Diisopropyl (2-(3,4-difluorophenyl)-4-phenylquinolin-8-yl)phosphonate]	+	+	–	–	26	32	3
CC(C)OP(=O)(OC(C)C)c1cccc2c(-c3ccc(F)cc3)cc(-c3ccc(F)cc3)nc12 [7n, Diisopropyl (2,4-bis(4-fluorophenyl)quinolin-8-yl)phosphonate]	–	–	+	–	59	57	7
CC(C)OP(=O)(OC(C)C)c1cccc2c(-c3ccc(F)cc3)cc(-c3ccc(F)c(F)c3)nc12 [7o, Diisopropyl (2-(3,4-difluorophenyl)-4-(4-fluorophenyl)quinolin-8-yl)phosphonate]	+	+	+	–	29	27	3
Cc1ccc(-c2cc(-c3ccc(F)cc3)nc3c(P(=O)(OC(C)C)OC(C)C)cccc23)cc1 [7p, Diisopropyl (2-(4-fluorophenyl)-4-(p-tolyl)quinolin-8-yl)phosphonate]	+	+	–	–	32	46	4
Cc1ccc(-c2cc(-c3ccc(F)c(F)c3)nc3c(P(=O)(OC(C)C)OC(C)C)cccc23)cc1 [7q, Diisopropyl (2-(3,4-difluorophenyl)-4-(p-tolyl)quinolin-8-yl)phosphonate]	+	+	–	–	51	35	6
CCOP(=O)(OCC)c1ccc2nc(-c3ccc(F)cc3)cc(-c3ccccc3)c2c1 [7r, Diethyl (2-(4-fluorophenyl)-4-phenylquinolin-6-yl)phosphonate]	–	–	–	–	9	15	3
CCOP(=O)(OCC)c1ccc2nc(-c3ccc(F)c(F)c3)cc(-c3ccccc3)c2c1 [7s, Diethyl (2-(3,4-difluorophenyl)-4-phenylquinolin-6-yl)phosphonate]	–	–	–	–	9	13	2
CCOP(=O)(OCC)c1ccc2nc(-c3ccc(F)cc3)cc(-c3ccc(F)cc3)c2c1 [7t, Diethyl (2,4-bis(4-fluorophenyl)quinolin-6-yl)phosphonate]	+	+	–	–	21	18	5
CCOP(=O)(OCC)c1ccc2nc(-c3ccc(F)c(F)c3)cc(-c3ccc(F)cc3)c2c1 [7u, Diethyl (2-(3,4-difluorophenyl)-4-(4-fluorophenyl)quinolin-6-yl)phosphonate]	+	+	+	–	27	21	14
CCOP(=O)(OCC)c1ccc2nc(-c3ccc(F)cc3)cc(-c3ccc(C)cc3)c2c1 [7v, Diethyl (2-(4-fluorophenyl)-4-(p-tolyl)quinolin-6-yl)phosphonate]	+	+	+	–	22	30	12
CCOP(=O)(OCC)c1ccc2nc(-c3ccc(F)c(F)c3)cc(-c3ccc(C)cc3)c2c1 [7x, Diethyl (2-(3,4-difluorophenyl)-4-(p-tolyl)quinolin-6-yl)phosphonate]	–	–	–	–	18	25	5
